This note sets out measurements from the supplement of paper PMC9446081.

Screen size: about 39,000 compounds; about 220 (0.56%) showed activity. This is one part of the list.
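Note: static incubation at 37 °C against the wild-type strain, values averaged over two biological replicates.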

This assay deals with Escherichia coli K-12 BW25113. The experiment in a line: relative growth (OD600 normalised to plate interquartile mean) (fraction); higher = less growth inhibition, active = 0.2 or less. Conditions: 50 µM; LB; incubation time: overnight (16-24 h).
`COc1ccc(NC(=O)Nc2ccc3c(c2)C(=O)N([C@@H](C)CO)C[C@@H](C)[C@H](CN(C)Cc2ccc4c(c2)OCO4)OCCCC[C@H](C)O3)cc1`: the relative growth was inactive: 0.979.
With `COc1cccc(S(=O)(=O)N(C)C[C@@H]2OCc3cnnn3CCCC(=O)N([C@@H](C)CO)C[C@@H]2C)c1`, the relative growth is inactive: 1.02.
With `C[C@@H]1CN([C@@H](C)CO)C(=O)c2cccc(NS(=O)(=O)c3ccc(Cl)cc3)c2O[C@@H]1CN(C)S(=O)(=O)c1cn(C)cn1`, the relative growth is inactive: 1.04.
Under `COCC(=O)N(C)C[C@H]1Oc2cc(C#CC(C)(C)O)ccc2S(=O)(=O)N([C@@H](C)CO)C[C@H]1C` stands inactive: 1.01; under `COC(=O)C(CC#Cc1ccc2c(c1)[C@]1(C(=O)N2)[C@H](c2ccc(O)cc2)N2[C@H](c3ccccc3)[C@H](c3ccccc3)OC(=O)[C@H]2[C@@H]1C(=O)N1CCc2cc(OC)c(OC)cc2C1)C(=O)OC`, inactive: 1.01.
As for `C1CCC(C(C[C@H]2CCCCN2)C2CCCCC2)CC1`, the relative growth is inactive: 0.935.
For the compound `CC(C)NC(=O)N(C)C[C@@H]1Oc2ccc(NS(=O)(=O)c3ccc(Cl)cc3)cc2C(=O)N([C@@H](C)CO)C[C@H]1C`, the relative growth is inactive: 0.988.
Take `C[C@@H]1CCCCO[C@H](CN(C)C(=O)NC2CCCCC2)[C@H](C)CN([C@@H](C)CO)C(=O)c2cc(NC(=O)Nc3ccc(F)cc3)ccc2O1`: the relative growth was inactive: 1.01.
Under `Cc1noc(C)c1NC(=O)Nc1ccc2c(c1)C(=O)N([C@@H](C)CO)C[C@@H](C)[C@@H](CN(C)S(C)(=O)=O)O2` stands inactive: 0.946; under `CC(C)c1nc(CN(C)C(=O)N[C@H](C(=O)N[C@@H](Cc2ccccc2)C[C@H](O)[C@H](Cc2ccccc2)NC(=O)OCc2cncs2)C(C)C)cs1`, inactive: 1.05.
Take `C[C@@H]1CN([C@H](C)CO)C(=O)Cc2cc(NC(=O)c3ccncc3)ccc2O[C@@H]1CN(C)Cc1ccc2c(c1)OCO2`: the relative growth is inactive: 1.
Turning to `O=C(C[C@H]1CC[C@H]2[C@@H](COC[C@H](O)CN2C(=O)c2ccccc2F)O1)N1CCN(c2ccccc2)CC1`, the relative growth was inactive: 0.917.
With `COc1ccc(NC(=O)N(C)C[C@@H]2Oc3c(NS(C)(=O)=O)cccc3C(=O)N([C@@H](C)CO)C[C@@H]2C)cc1`, the relative growth was inactive: 0.971.
Regarding `C[C@H](CO)N1C[C@H](C)[C@@H](CN(C)C(=O)Nc2ccccc2)OCCCC[C@H](C)Oc2ccc(NS(=O)(=O)c3cccs3)cc2C1=O`, the relative growth is inactive: 1.02.
On to `C[C@@H]1CN([C@@H](C)CO)C(=O)c2cc(NS(=O)(=O)c3cn(C)cn3)ccc2O[C@H]1CN(C)C(=O)NC1CCCCC1`, for which the relative growth was inactive: 1.01.
Regarding `COc1ccc(S(=O)(=O)Nc2ccc3c(c2)CC(=O)N([C@H](C)CO)C[C@H](C)[C@@H](CN(C)S(=O)(=O)c2cn(C)cn2)O3)cc1`, the relative growth was inactive: 1.01.
With `COc1ccccc1C#Cc1cnc2c(c1)C(=O)N([C@H](C)CO)C[C@H](C)[C@H](CN(C)C(=O)CC1CC1)O2`, the relative growth is inactive: 1.02.
As to `Cc1cc(O)c(C(=O)/C=C/N(C)C)c(=O)o1`, the relative growth was inactive: 0.976.
In the case of `C[C@@H]1CCCCO[C@@H](CN(C)S(=O)(=O)c2ccc(F)cc2)[C@H](C)CN([C@H](C)CO)C(=O)c2cc(NC(=O)NC3CCCCC3)ccc2O1`, the relative growth was inactive: 1.02.
Turning to `C[C@@H]1CN([C@@H](C)CO)S(=O)(=O)c2ccc(C#CC3(O)CCCC3)cc2O[C@H]1CN(C)C(=O)c1ccncc1`, the relative growth was inactive: 0.993.
Under `OCc1c[nH]c2ccccc12` stands inactive: 1.1.
As for `C[C@@H]1CN([C@H](C)CO)C(=O)Cc2cc(NC(=O)Nc3cccc4ccccc34)ccc2O[C@H]1CN(C)C(=O)Nc1cccc2ccccc12`, the relative growth is inactive: 1.05.
Consider `COc1ccccc1-c1cnc2c(c1)C(=O)N([C@H](C)CO)C[C@H](C)[C@H](CN(C)C(=O)c1ccncc1)O2`, for which the relative growth was inactive: 1.01.
Under `Cn1cnc(S(=O)(=O)N2C[C@H](O)COC[C@@H]3O[C@H](CC(=O)NC4Cc5ccccc5C4)CC[C@H]32)c1` stands inactive: 0.988.
As for `O=C(C1=C(O)C(=O)N(c2nccs2)[C@H]1c1cccc(Oc2ccccc2)c1)c1ccc2c(c1)OCCO2`, the relative growth is inactive: 1.01.
With `COc1ccc(-c2coc3c(O)c(O)c(OC)cc3c2=O)cc1`, the relative growth is inactive: 1.07.
With `CCCCOC(=O)[C@@H](N)CCC(=O)O`, the relative growth was inactive: 0.976.
Under `C[C@@H]1CN([C@H](C)CO)C(=O)Cc2cc(NC(=O)NC3CCCCC3)ccc2O[C@H]1CN(C)C(=O)Nc1cccc2ccccc12` stands inactive: 0.963; under `CCCCC[C@@H](O)C[C@@H](O)CC(=O)O[C@@H](CCCCC)C[C@@H](O)CC(=O)OC[C@@H](O)[C@@H](O)[C@@H](O)[C@@H](O)CO`, inactive: 0.99.
As to `COCC(=O)Nc1ccc2c(c1)C(=O)N(C)C[C@@H](OC)[C@H](C)CN(Cc1ccccc1OC)[C@@H](C)CO2`, the relative growth is inactive: 1.
With `C[C@@H]1CN([C@H](C)CO)S(=O)(=O)c2ccc(-c3cncnc3)cc2O[C@@H]1CN(C)C(=O)CN(C)C`, the relative growth is inactive: 0.992.
Turning to `CN1CCSC1=N`, the relative growth was inactive: 0.977.
In the case of `COC(=O)CC1C(C)(C)C(OC(C)=O)C2CC3=C4CC(=O)OC(c5ccoc5)C4(C)CCC3C1(C)C2=O` (centres undefined) it was inactive: 1.04; in that of `Cc1noc(C)c1S(=O)(=O)N(C)C[C@@H]1Oc2ccc(NS(=O)(=O)c3ccc(Cl)cc3)cc2CC(=O)N([C@@H](C)CO)C[C@H]1C`, inactive: 0.997; in that of `N#C[C@H]1N[C@@H](CO)[C@@H]1c1ccccc1`, inactive: 1.
As to `Cc1noc(C)c1NC(=O)N(C)C[C@H]1Oc2ccc(NC(=O)Nc3ccc(C(F)(F)F)cc3)cc2C(=O)N([C@H](C)CO)C[C@H]1C`, the relative growth is inactive: 0.979.
In the case of `C[C@@H]1CN([C@@H](C)CO)C(=O)c2cc(NC(=O)Nc3ccc(F)cc3)ccc2O[C@@H](C)CCCCO[C@@H]1CN(C)Cc1ccncc1` it was inactive: 0.93; in that of `COCCNC(=O)C[C@@H]1C[C@H]2c3cc(NC(=O)CN(C)C)ccc3O[C@H]2[C@H](CO)O1`, inactive: 0.978; in that of `Cc1noc(C)c1NC(=O)Nc1ccc2c(c1)CC(=O)N([C@@H](C)CO)C[C@H](C)[C@@H](CN(C)C(=O)NC(C)C)O2`, inactive: 1.01.
